Measured values reported in the supplement of paper PMC12423691.
The list shows a part of the results. Binding of human transcription factors and regulators to the viral nucleoprotein by AlphaScreen, crude cell-free proteins, amounts not normalised, one pass. Fold of the Venus control; higher = more signal. No active / inactive call. Single-pass screen; sequences are the whole Swiss-Prot entries looked up by name.

B1: TRIB1, Q96RU8 (protein)
chain: MRVGPVRSAMSGASQPRGPALLFPATRGVPAKRLLDADDAAAVAAKCPRLSECSSPPDYLSPPGSPCSPQPPPAAPGAGGGSGSAPGPSRIADYLLLPLAEREHVSRALCIHTGRELRCKVFPIKHYQDKIRPYIQLPSHSNITGIVEVILGETKAYVFFEKDFGDMHSYVRSRKRLREEEAARLFKQIVSAVAHCHQSAIVLGDLKLRKFVFSTEERTQLRLESLEDTHIMKGEDDALSDKHGCPAYVSPEILNTTGTYSGKAADVWSLGVMLYTLLVGRYPFHDSDPSALFSKIRRGQFCIPEHISPKARCLIRSLLRREPSERLTAPEILLHPWFESVLEPGYIDSEIGTSDQIVPEYQEDSDISSFFC
B2: ASCL2, Q99929 (protein)
chain: MDGGTLPRSAPPAPPVPVGCAARRRPASPELLRCSRRRRPATAETGGGAAAVARRNERERNRVKLVNLGFQALRQHVPHGGASKKLSKVETLRSAVEYIRALQRLLAEHDAVRNALAGGLRPQAVRPSAPRGPPGTTPVAASPSRASSSPGRGGSSEPGSPRSAYSSDDSGCEGALSPAERELLDFSSWLGGY
B3: NKX3-1, Q99801 (protein)
chain: MLRVPEPRPGEAKAEGAAPPTPSKPLTSFLIQDILRDGAQRQGGRTSSQRQRDPEPEPEPEPEGGRSRAGAQNDQLSTGPRAAPEEAETLAETEPERHLGSYLLDSENTSGALPRLPQTPKQPQKRSRAAFSHTQVIELERKFSHQKYLSAPERAHLAKNLKLTETQVKIWFQNRRYKTKRKQLSSELGDLEKHSSLPALKEEAFSRASLVSVYNSYPYYPYLYCVGSWSPAFW
B4: FLI1, Q01543 (protein)
chain: MDGTIKEALSVVSDDQSLFDSAYGAAAHLPKADMTASGSPDYGQPHKINPLPPQQEWINQPVRVNVKREYDHMNGSRESPVDCSVSKCSKLVGGGESNPMNYNSYMDEKNGPPPPNMTTNERRVIVPADPTLWTQEHVRQWLEWAIKEYSLMEIDTSFFQNMDGKELCKMNKEDFLRATTLYNTEVLLSHLSYLRESSLLAYNTTSHTDQSSRLSVKEDPSYDSVRRGAWGNNMNSGLNKSPPLGGAQTISKNTEQRPQPDPYQILGPTSSRLANPGSGQIQLWQFLLELLSDSANASCITWEGTNGEFKMTDPDEVARRWGERKSKPNMNYDKLSRALRYYYDKNIMTKVHGKRYAYKFDFHGIAQALQPHPTESSMYKYPSDISYMPSYHAHQQKVNFVPPHPSSMPVTSSSFFGAASQYWTSPTGGIYPNPNVPRHPNTHVPSHLGSYY
B5: FOXR1, Q6PIV2 (protein)
chain: MGNELFLAFTTSHLPLAEQKLARYKLRIVKPPKLPLEKKPNPDKDGPDYEPNLWMWVNPNIVYPPGKLEVSGRRKREDLTSTLPSSQPPQKEEDASCSEAAGVESLSQSSSKRSPPRKRFAFSPSTWELTEEEEAEDQEDSSSMALPSPHKRAPLQSRRLRQASSQAGRLWSRPPLNYFHLIALALRNSSPCGLNVQQIYSFTRKHFPFFRTAPEGWKNTVRHNLCFRDSFEKVPVSMQGGASTRPRSCLWKLTEEGHRRFAEEARALASTRLESIQQCMSQPDVMPFLFDL
B6: RB1, P06400 (protein)
chain: MPPKTPRKTAATAAAAAAEPPAPPPPPPPEEDPEQDSGPEDLPLVRLEFEETEEPDFTALCQKLKIPDHVRERAWLTWEKVSSVDGVLGGYIQKKKELWGICIFIAAVDLDEMSFTFTELQKNIEISVHKFFNLLKEIDTSTKVDNAMSRLLKKYDVLFALFSKLERTCELIYLTQPSSSISTEINSALVLKVSWITFLLAKGEVLQMEDDLVISFQLMLCVLDYFIKLSPPMLLKEPYKTAVIPINGSPRTPRRGQNRSARIAKQLENDTRIIEVLCKEHECNIDEVKNVYFKNFIPFMNSLGLVTSNGLPEVENLSKRYEEIYLKNKDLDARLFLDHDKTLQTDSIDSFETQRTPRKSNLDEEVNVIPPHTPVRTVMNTIQQLMMILNSASDQPSENLISYFNNCTVNPKESILKRVKDIGYIFKEKFAKAVGQGCVEIGSQRYKLGVRLYYRVMESMLKSEEERLSIQNFSKLLNDNIFHMSLLACALEVVMATYSRSTSQNLDSGTDLSFPWILNVLNLKAFDFYKVIESFIKAEGNLTREMIKHLERCEHRIMESLAWLSDSPLFDLIKQSKDREGPTDHLESACPLNLPLQNNHTAADMYLSPVRSPKKKGSTTRVNSTANAETQATSAFQTQKPLKSTSLSLFYKKVYRLAYLRLNTLCERLLSEHPELEHIIWTLFQHTLQNEYELMRDRHLDQIMMCSMYGICKVKNIDLKFKIIVTAYKDLPHAVQETFKRVLIKEEEYDSIIVFYNSVFMQRLKTNILQYASTRPPTLSPIPHIPRSPYKFPSSPLRIPGGNIYISPLKSPYKISEGLPTPTKMTPRSRILVSIGESFGTSEKFQKINQMVCNSDRVLKRSAEGSNPPKPLKKLRFDIEGSDEADGSKHLPGESKFQQKLAEMTSTRTRMQKQKMNDSMDTSNKEEK
B7: CDX4, O14627 (protein)
chain: MYGSCLLEKEAGMYPGTLMSPGGDGTAGTGGTGGGGSPMPASNFAAAPAFSHYMGYPHMPSMDPHWPSLGVWGSPYSPPREDWSVYPGPSSTMGTVPVNDVTSSPAAFCSTDYSNLGPVGGGTSGSSLPGQAGGSLVPTDAGAAKASSPSRSRHSPYAWMRKTVQVTGKTRTKEKYRVVYTDHQRLELEKEFHCNRYITIQRKSELAVNLGLSERQVKIWFQNRRAKERKMIKKKISQFENSGGSVQSDSDSISPGELPNTFFTTPSAVRGFQPIEIQQVIVSE
B8: KDM5A, P29375 (protein)
chain: MAGVGPGGYAAEFVPPPECPVFEPSWEEFTDPLSFIGRIRPLAEKTGICKIRPPKDWQPPFACEVKSFRFTPRVQRLNELEAMTRVRLDFLDQLAKFWELQGSTLKIPVVERKILDLYALSKIVASKGGFEMVTKEKKWSKVGSRLGYLPGKGTGSLLKSHYERILYPYELFQSGVSLMGVQMPNLDLKEKVEPEVLSTDTQTSPEPGTRMNILPKRTRRVKTQSESGDVSRNTELKKLQIFGAGPKVVGLAMGTKDKEDEVTRRRKVTNRSDAFNMQMRQRKGTLSVNFVDLYVCMFCGRGNNEDKLLLCDGCDDSYHTFCLIPPLPDVPKGDWRCPKCVAEECSKPREAFGFEQAVREYTLQSFGEMADNFKSDYFNMPVHMVPTELVEKEFWRLVSSIEEDVIVEYGADISSKDFGSGFPVKDGRRKILPEEEEYALSGWNLNNMPVLEQSVLAHINVDISGMKVPWLYVGMCFSSFCWHIEDHWSYSINYLHWGEPKTWYGVPSHAAEQLEEVMRELAPELFESQPDLLHQLVTIMNPNVLMEHGVPVYRTNQCAGEFVVTFPRAYHSGFNQGYNFAEAVNFCTADWLPIGRQCVNHYRRLRRHCVFSHEELIFKMAADPECLDVGLAAMVCKELTLMTEEETRLRESVVQMGVLMSEEEVFELVPDDERQCSACRTTCFLSALTCSCNPERLVCLYHPTDLCPCPMQKKCLRYRYPLEDLPSLLYGVKVRAQSYDTWVSRVTEALSANFNHKKDLIELRVMLEDAEDRKYPENDLFRKLRDAVKEAETCASVAQLLLSKKQKHRQSPDSGRTRTKLTVEELKAFVQQLFSLPCVISQARQVKNLLDDVEEFHERAQEAMMDETPDSSKLQMLIDMGSSLYVELPELPRLKQELQQARWLDEVRLTLSDPQQVTLDVMKKLIDSGVGLAPHHAVEKAMAELQELLTVSERWEEKAKVCLQARPRHSVASLESIVNEAKNIPAFLPNVLSLKEALQKAREWTAKVEAIQSGSNYAYLEQLESLSAKGRPIPVRLEALPQVESQVAAARAWRERTGRTFLKKNSSHTLLQVLSPRTDIGVYGSGKNRRKKVKELIEKEKEKDLDLEPLSDLEEGLEETRDTAMVVAVFKEREQKEIEAMHSLRAANLAKMTMVDRIEEVKFCICRKTASGFMLQCELCKDWFHNSCVPLPKSSSQKKGSSWQAKEVKFLCPLCMRSRRPRLETILSLLVSLQKLPVRLPEGEALQCLTERAMSWQDRARQALATDELSSALAKLSVLSQRMVEQAAREKTEKIISAELQKAAANPDLQGHLPSFQQSAFNRVVSSVSSSPRQTMDYDDEETDSDEDIRETYGYDMKDTASVKSSSSLEPNLFCDEEIPIKSEEVVTHMWTAPSFCAEHAYSSASKSCSQGSSTPRKQPRKSPLVPRSLEPPVLELSPGAKAQLEELMMVGDLLEVSLDETQHIWRILQATHPPSEDRFLHIMEDDSMEEKPLKVKGKDSSEKKRKRKLEKVEQLFGEGKQKSKELKKMDKPRKKKLKLGADKSKELNKLAKKLAKEEERKKKKEKAAAAKVELVKESTEKKREKKVLDIPSKYDWSGAEESDDENAVCAAQNCQRPCKDKVDWVQCDGGCDEWFHQVCVGVSPEMAENEDYICINCAKKQGPVSPGPAPPPSFIMSYKLPMEDLKETS

Each binder was assayed against nucleoprotein N of Crimean-Congo hemorrhagic fever virus (assay: AlphaScreen luminescence signal relative to Venus negative control (fold); higher = stronger binding to CCHFV N).
Experimental: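 AlphaScreen binding of cell-free made, FLAG-GST-tagged human transcription factors and regulators (crude translation products) to biotinylated N protein; signal as fold of the FLAG-GST-Venus control. One pass.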

Row | Binder | AlphaScreen luminescence signal
1 | B1 | 1.77
2 | B2 | 9.91
3 | B3 | 1.63
4 | B4 | 2.23
5 | B5 | 5.3
6 | B6 | 8.09
7 | B7 | 4.93
8 | B8 | 3.63
